Measurements published in ChEMBL document CHEMBL1201862, “PubChem BioAssay data set” (2004).

What follows are compounds tested on NCI-H322M (assay: growth of human tumour cells (NCI), 48 h).

Row | Compound | GI50
1 | Fc1ccc(C(OCCN2CC3CC2CN3CCCc2ccccc2)c2ccc(F)cc2)cc1 (configuration not stated) | inactive: 12.9 µM
2 | S=C(Nc1ccccn1)Nc1ccccc1Cl | inactive: > 71 µM
3 | CN(C)C1C(=O)C(C(N)=O)=C(O)C2(O)C(O)=C3C(=O)c4c(O)cccc4C(C)(O)C3CC12 (configuration not stated) | inactive: > 100 µM
4 | CN(C(=O)c1ccncc1)c1ccccc1 | inactive: > 100 µM
5 | COc1ccc2nc(NCN3C(=O)c4ccccc4C3=O)sc2c1 | inactive: > 100 µM
6 | CCOC(=O)NC(NCC(O)c1ccccc1)(C(F)(F)F)C(F)(F)F (configuration not stated) | inactive: > 100 µM
7 | COC(=O)C(=O)C(C(=O)C(=O)Nc1cc([N+](=O)[O-])ccc1C#N)c1nc2ccccc2nc1O (configuration not stated) | inactive: > 100 µM
8 | Cc1nc2c(O)c3c(c(O)c2nc1C)C1C=CC3CC1 | inactive: 57.8 µM
9 | Cc1cc(Cl)ccc1OCC(=O)Nc1nc(N)nc(N)n1 | inactive: > 100 µM
10 | O=S1(=O)c2ccccc2NC(=S)CC1c1ccccc1 (configuration not stated) | inactive: > 100 µM
11 | Clc1cc(Cl)c2cc3cccc[n+]3cc2c1Cl | inactive: 20.3 µM
12 | CN(C)C(=S)N1C(=S)N(c2ccccc2)C(=N/c2ccccc2)/C1=N\c1ccccc1 | inactive: 40 µM
13 | CC(C)(C)/C(O)=C\c1nc2cc(C(F)(F)F)ccc2[nH]c1=O | inactive: > 100 µM
14 | CC(=O)OCC1OC(N2C(c3ccccc3)=CC(c3cccs3)C(C#N)=C2S)C(OC(C)=O)C(OC(C)=O)C1OC(C)=O (configuration not stated) | inactive: > 100 µM
15 | C[C@]12Cc3cn[nH]c3C(=O)C1CC[C@@H]1C2CC[C@@]2(C)C1CC[C@@H]2O (some centres not stated) | inactive: > 100 µM
16 | CCO/C=N/NC(=O)CSc1nc2ccc(I)cc2c(=O)n1Cc1ccccc1 | inactive: > 100 µM
17 | CCOC(=O)C1=C(C)N(Cc2ccccc2)C2(O)C=CC(=O)C3C(=O)N(c4ccccc4)C(=O)C132 (configuration not stated) | inactive: 13.4 µM
18 | O=C(NN1C(=O)C(Cl)C1c1cccc([N+](=O)[O-])c1)c1ccccc1O (configuration not stated) | inactive: > 100 µM
19 | Cc1cc(-c2ccc(Cl)cc2)c(C#N)c(=S)n1C1OC(CO)C(O)C(O)C1O (configuration not stated) | inactive: > 100 µM
20 | COc1cc(S(=O)(=O)Nc2nc(-c3ccc(/N=C/c4cccs4)cc3)cs2)ccc1Cl | inactive: > 100 µM
21 | Cc1ccc2c(c1)NC(c1ccc(C(=O)O)cc1)c1cccn1-2 (configuration not stated) | inactive: 23.6 µM

Row | Compound | GI50
22 | Cc1cc2c(cc1C)[n+]([O-])c(C(=O)C/C(=N/OCCCc1ccccc1)C(=O)Nc1cc(Cl)ccc1Cl)c(C)[n+]2[O-] | inactive: > 100 µM
23 | CCOC(=O)c1csc(NC(=O)CCN2CCOCC2)n1 | inactive: > 100 µM
24 | COC(=O)NNC(=O)OC.COC(=O)Nc1ccccc1NC(=O)OC.COC(=O)Oc1nn(C(=O)OC)c(=O)c2ccccc12 | inactive: > 100 µM
25 | Cc1ccc(S(=O)(=O)C2CC2(Cl)Cl)cc1 (configuration not stated) | inactive: > 100 µM
26 | CCOc1ccnc2c(OC)c(C)c3nc4ccccc4nc3c12 | inactive: > 100 µM
27 | CN1C2CC(=O)CC1[C@@H]1OC(c3ccccc3)O[C@H]21 (some centres not stated) | inactive: > 100 µM
28 | CC1(C)CC(C)(C)CC(O)(C2(O)CC(C)(C)CC(C)(C)C2)C1 | inactive: > 100 µM
29 | C[n+]1c2ccccc2c(NCC(=O)O)c2ccccc21 | inactive: > 100 µM
30 | O=C(N/N=C/c1cccc(O)c1O)N/N=C/c1cccc(O)c1O | inactive: 19.3 µM
31 | Cc1ccc(C2SCC(=O)N2c2ccc(-n3c(-c4ccccc4)nc4ccccc4c3=O)cc2)cc1 (configuration not stated) | inactive: 27.2 µM
32 | N#CC1(N2CCCC2)CCC2(CC1)OCCO2 | inactive: > 100 µM
33 | Cn1c(N/N=C/c2ccccc2)nc(-c2ccc([N+](=O)[O-])cc2)c(C#N)c1=O | inactive: 28.1 µM
34 | CC(C)(C)c1cc2c(OC/C=C/c3ccccc3)c(c1)Cc1cc(C(C#N)(OC/C=C/c3ccccc3)OC/C=C/c3ccccc3)cc(c1OC/C=C\c1ccccc1)Cc1cc(C(C)(C)C)cc(c1OC/C=C/c1ccccc1)Cc1cc(C(C#N)(OC/C=C\c3ccccc3)OC/C=C/c3ccccc3)cc(c1OC/C=C\c1ccccc1)C2 (configuration not stated) | inactive: > 100 µM
35 | CC(=O)OC1OC(c2ccoc2)C[C@@]12C1CCC3O[C@]3(C)[C@]1(C)[C@H](OC(C)=O)[C@H](OC(C)=O)[C@H]2C (some centres not stated) | inactive: > 37.5 µM
36 | Nc1cccc(OCC2CCCN3CCCCC23)c1 (configuration not stated) | inactive: 16.1 µM
37 | Cc1c(C)c2c(c(N)c1C#N)C(=O)N(N)C2=O | inactive: > 100 µM
38 | C=CCC1(C#N)C(=S)NC2=C(C(=O)CC(C)(C)C2)C1c1ccccc1 (configuration not stated) | inactive: 21.1 µM
39 | COC(=O)c1ccccc1/C=C1\Cc2cc(C)cc(C)c2C1=O | inactive: > 100 µM
40 | CN(C)/C=N/S(=O)(=O)c1nn2c(C=O)c(-c3ccc(-c4ccc([N+](=O)[O-])cc4)o3)nc2s1 | inactive: 11.7 µM
41 | CCCNC(=O)NNC(=O)c1c[nH]c2nc(C)ccc2c1=O | inactive: > 100 µM
42 | NS(=O)(=O)c1ccc(NC(=O)c2cc([N+](=O)[O-])cc([N+](=O)[O-])c2)cc1 | inactive: 75.3 µM

Row | Compound | GI50
43 | CC(O)CN1c2ccccc2Sc2ccccc21 (configuration not stated) | inactive: > 100 µM
44 | Cc1cccc(N/C(=C(/C(Cl)=C(Cl)Cl)[N+](=O)[O-])n2nnc3ccccc32)c1 | inactive: 24.2 µM
45 | COc1ccc2c(c1)[n+]([O-])c(C(=O)C/C(=N/NC(=O)C[N+](C)(C)C)C(=O)Nc1cccc(C)c1C)c(C)[n+]2[O-] | inactive: > 100 µM
46 | O=C1CNNC(CSc2nc3ccc(I)cc3c(=O)n2Cc2ccccc2)=N1 | inactive: 38.8 µM
47 | Oc1c(CN2CCCC2)ccc2cccnc12 | inactive: 24.2 µM
48 | CN(C)c1ccc(C=C2N=C(c3ccccc3)N(c3cc(C(=O)c4ccccc4)ccc3N3C(=O)/C(=C/c4ccc(N(C)C)cc4)N=C3c3ccccc3)C2=O)cc1 | inactive: > 100 µM
49 | O=C1CSC2=NC3=C(COC/C3=C\c3ccc(F)cc3)C(c3ccc(F)cc3)N12 (configuration not stated) | inactive: 47.5 µM
50 | CC(C)(C)[Si](C)(C)OCC1OC(n2ccc(=O)[nH]c2=O)C(O[Si](C)(C)C(C)(C)C)/C1=C/C#N (configuration not stated) | inactive: 24.5 µM
51 | NC1=C(c2nc(-c3ccccc3)cs2)C(c2ccco2)c2c(c3ccccc3oc2=O)O1 (configuration not stated) | inactive: > 100 µM
52 | CO[C@H]1C[C@H](O[C@H]2CC[C@@]3(C)[C@H](CC[C@@H]4[C@@H]3CC[C@]3(C)[C@@H](C5=CC(=O)OC5)CC[C@]43O)C2)O[C@H](C)[C@H]1O | active: < 0.01 µM
53 | CCOC(=O)CN(c1ccccc1)c1nc(=[N+](C)C)ss1 | inactive: 44.9 µM
54 | Cc1ccc2[nH]c(=N/c3ccccc3C)/c(=N\c3ccccc3C)[nH]c2c1 | inactive: 38.5 µM
55 | Cc1[nH]c2ncn(/N=C/c3ccccc3)c(=N)c2c1Cc1ccccc1 | inactive: > 100 µM
56 | c1ccc(Cc2cccc3cc(-c4ccc(-c5ccccc5)cc4)[nH]c23)cc1 | inactive: > 100 µM
57 | O=CN1CCN(C(=O)c2ccc(Cl)c(Cl)c2)C1=S | inactive: 16.8 µM
58 | Cc1nc2ccccc2n1COC(Cn1ccnc1)c1ccc(Cl)cc1Cl (configuration not stated) | inactive: > 100 µM
59 | CC1OC1P(=O)(O)O (configuration not stated) | inactive: > 100 µM
60 | ClCCNCCNCCCl.ClCCNCCNCCCl.[O-][Cl+3]([O-])([O-])O | inactive: 79.6 µM
61 | COc1cc(CN[C@H]2CCc3cc(OC)c(OC)c(OC)c3-c3ccc(SC)c(=O)cc32)cc(OC)c1 | active: 0.039 µM
62 | CC(=O)c1nc2ccccc2n1CC(=O)c1ccc(Cl)cc1 | inactive: 11.2 µM

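All cell lines were grown in 96-well plates and treated with compound for 48 hours. GI50 marks 50% less growth.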 Active and inactive are the calls of the source. Cut-off read from the data, not from the text of the source: active = GI50 up to about 1.1 µM and inactive = higher.
